{"source": "PubChem BioAssay AID540267", "about": "(National Center for Advancing Translational Sciences (NCATS), 2011)", "note": "In all, about 340,000 compounds went through this assay and about 530 (0.16%) were called active. This list was built around the results that the source calls inconclusive (neither active nor inactive); the mix of calls is not that of the screen. No stated cut-off is given here; in the data, active means activity change below about -80%; inconclusive means between about -30% and that limit; inactive means weaker than that. On the % scale 0 is the no-effect control and ±100 the full control effect.", "data": [{"assay": "Small Molecules that selectively kill Giardia lamblia: qHTS;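 further: parasites exposed to compound for two days anaerobically before the ATP read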", "conditions": "Giardia lamblia trophozoite viability; at 7.66 µM; active compounds read low", "source_text": "Giardia lamblia is a human pathogen afflicting impoverished nations, and the most common cause of outbreaks of diarrhea in the United States. Giardia has been classified by the CDC as a category B bioterrorism organism. The favored anti giardiasis drugs in the US are metronidazole or tinidazole, compounds that have undesirable side effects. Moreover, increasing resistance to drug regimes and recurrence are a concern. It is thus clear that alternative drug treatments are needed.\nIn a collaboration between the University of Maryland, College Park and the NIH Chemical Genomics Center, a bioluminescence Giardia viability assay based on the trophozoites' ATP content was developed. This assay is suitable for high throughput screening, and miniaturized the assay for compound screening in 1536-well plates. The goal of the project is to screen the Molecular Libraries Small Molecule Repository (MLSMR) for compounds that selectively kill Giardia trophozoites.\nNIH Chemical Genomics Center [NCGC]\nNIH Molecular Libraries Probe Centers Network [MLPCN]\nAssay Submitter (PI): Osnat Herzberg, University of Maryland, College Park, MD.\n1. Dispense 2 ul/well media\n2. Dispense 23 nl/well compounds\n3. Dispense 4 ul/well Giardia trophozoites at a concentration of 100 cells/well\n4. Incubate 48 hrs at 37 deg C anaerobically\n5. Dispense 4 ul/well ATPLite 1-Step Luminescence assay kit\n6. Incubate 15-30 min at room temperature\n7. Read luminescence signal on ViewLux plate reader", "values": [{"smiles": "O=C(Nc1ccccc1Cl)C1CC(=O)N(c2ccccc2)C1", "note": "(stereo not drawn)", "activity change": "inconclusive: -33.5% [inhibitor]"}, {"smiles": "Cc1cc(C(=O)Nc2sc3c(c2C#N)CCC(C)C3)cs1", "note": "(stereo not drawn)", "activity change": "inconclusive: -39.3% [inhibitor]"}, {"smiles": "O=C(CN(C(=O)CCC(=O)Nc1ccccn1)C1CCCC1)NCc1ccccc1", "activity change": "inconclusive: -31.4% [inhibitor]"}, {"smiles": "O=C(OCC(=O)C12CC3CC(CC(C3)C1)C2)c1ccc(O)cc1", "activity change": "inconclusive: -34.9% [inhibitor]"}, {"smiles": "O=C(NCCc1c[nH]c2ccccc12)c1ccc(F)cc1F", "activity change": "inactive: -9.49%"}, {"smiles": "CCOC(=O)C1=C(C)Nc2ccccc2N/C1=N\\S(=O)(=O)c1cc(C(=O)O)ccc1Cl", "activity change": "inactive: 7.47%"}, {"smiles": "CCc1ccc([C@@H]2CC=C(C(=O)O)[C@H](c3ccccc3)N2S(=O)(=O)c2ccc(C)cc2)cc1", "activity change": "inconclusive: -30.2% [inhibitor]"}, {"smiles": "CC(=O)c1ccc(N2CCN(C(=O)c3cc(-c4ccncc4)nc4ccc(Br)cc34)CC2)cc1", "activity change": "inactive: -9.17%"}, {"smiles": "COC(=O)c1ccc2nc(-c3cccc(N)c3)cn2c1", "activity change": "inconclusive: -54.8% [inhibitor]"}, {"smiles": "COc1ccc(NC(=S)N(Cc2cccnc2)Cc2cc3cc(OC)c(OC)cc3[nH]c2=O)cc1", "activity change": "inconclusive: -41.9% [inhibitor]"}, {"smiles": "O=C(NCc1cccc(Cl)c1)c1cccc(S(=O)(=O)N2CCCC2)c1", "activity change": "inconclusive: -40.7% [inhibitor]"}, {"smiles": "O=C(c1cccc(F)c1)N1CCCC(C(=O)N2CCCCC2)C1", "note": "(stereo not drawn)", "activity change": "inconclusive: -30.6% [inhibitor]"}, {"smiles": "O=[n+]1c2c(n([O-])c3cc(Br)ccc31)CCC2", "activity change": "inconclusive: -61.9% [inhibitor]"}, {"smiles": "CC1=CC(=O)C(C(C)C)=C/C1=N/OS(=O)(=O)c1ccccc1", "activity change": "inactive: -8.92%"}, {"smiles": "O=[N+]([O-])c1cc(/C=N/Nc2nc(N3CCCCC3)nc(N3CCCCC3)n2)ccc1O", "activity change": "inconclusive: -54% [inhibitor]"}, {"smiles": "COc1ccc(-c2nc(SCC(=O)N(CC(C)C)c3c(N)n(Cc4ccccc4)c(=O)[nH]c3=O)n[nH]2)cc1", "activity change": "inconclusive: -31.2% [inhibitor]"}, {"smiles": "Cc1ccccc1C(=O)Nc1ccnn1C1CCN(Cc2cnn(C(C)C)c2)CC1", "activity change": "inactive: 4.5%"}, {"smiles": "CCCS(=O)(=O)Nc1ccc(Nc2c3ccccc3nc3ccccc23)c(OC)c1", "activity change": "inactive: 14.8%"}, {"smiles": "NC(=O)c1ccc(SCC(=O)OCC(=O)N2CCCC2=O)c([N+](=O)[O-])c1", "activity change": "inconclusive: -32.9% [inhibitor]"}, {"smiles": "O=C(CC12CC3CC(CC(C3)C1)C2)N/N=C/c1ccc([N+](=O)[O-])o1", "activity change": "active: -93.7%"}, {"smiles": "O=C(CNC(=O)c1ccccc1)NCC(c1ccco1)N1CCCC1", "note": "(stereo not drawn)", "activity change": "inconclusive: -37.9% [inhibitor]"}, {"smiles": "O=C(Cn1cc([N+](=O)[O-])cn1)Nc1ccn(Cc2c(F)c(F)cc(F)c2F)n1", "activity change": "inconclusive: -31.3% [inhibitor]"}, {"smiles": "CCOc1ccc(C(=O)OCC(=O)N2CCOCC2)cc1OCC", "activity change": "inconclusive: -35.1% [inhibitor]"}, {"smiles": "COc1ccc(N2CCN(C(CNS(=O)(=O)c3ccccc3)c3ccccc3)CC2)cc1", "note": "(stereo not drawn)", "activity change": "inconclusive: -32.6% [inhibitor]"}, {"smiles": "O=C(CSc1ccccc1F)NC(=O)c1ccccc1Br", "activity change": "inconclusive: -30.9% [inhibitor]"}, {"smiles": "COc1ccc2nc(-c3ccccc3)[nH]c(=O)c2c1", "activity change": "inconclusive: -34.4% [inhibitor]"}, {"smiles": "COc1ccc(Nc2ccc([N+](=O)[O-])cc2[N+](=O)[O-])cc1", "activity change": "inactive: 3.38%"}, {"smiles": "CC1(C)Cc2nc3sc4c(OCc5ccccc5)ncnc4c3cc2CO1", "activity change": "inactive: 11.5%"}, {"smiles": "Cc1oc2c(c1C(=O)N1CCOCC1)C(=O)c1ccccc1C2=O", "activity change": "inconclusive: -77.1% [inhibitor]"}, {"smiles": "COc1ccc(CCNc2oc(COc3ccc(Br)cc3)nc2C#N)cc1OC", "activity change": "inconclusive: -47.5% [inhibitor]"}, {"smiles": "COc1cccc(CNC(=O)CSc2nnc3c(n2)[nH]c2ccc(F)cc23)c1", "activity change": "inconclusive: -35.3% [inhibitor]"}, {"smiles": "COC(=O)c1sc(N)c(C(=O)OC)c1COC(=O)CNS(=O)(=O)c1ccc(C)c(C)c1", "activity change": "inactive: -7.24%"}, {"smiles": "COc1ccc(OC)c(CNC(=O)C2CCN(S(=O)(=O)N3CCCCC3)CC2)c1", "activity change": "inconclusive: -34.8% [inhibitor]"}, {"smiles": "CC1CC=CC2C1C(=O)N(Cc1ccccc1)C2c1cccc([N+](=O)[O-])c1", "note": "(stereo not drawn)", "activity change": "inconclusive: -38.7% [inhibitor]"}, {"smiles": "C=CCn1c(CCC(O)COCCC)n[nH]c1=S", "note": "(stereo not drawn)", "activity change": "inactive: 3.02%"}, {"smiles": "CC(C)(C)NNC(=S)Nc1cccc(C(F)(F)F)c1", "activity change": "inactive: -10.3%"}, {"smiles": "O=C(O)c1cc(N2N=C(C(F)(F)F)/C(=C/C=C/c3ccco3)C2=O)ccc1Cl", "activity change": "inactive: 4.81%"}, {"smiles": "Cc1ccc(NCC(=O)Nc2ccc(Br)cc2)cc1C", "activity change": "inconclusive: -31.6% [inhibitor]"}, {"smiles": "CCCOP(=O)(OCCC)c1c([N+](=O)[O-])cc(C(F)(F)F)cc1[N+](=O)[O-]", "activity change": "inconclusive: -38.4% [inhibitor]"}, {"smiles": "CCCC(=O)NC(=S)Nc1ccccc1N1CCOCC1", "activity change": "inactive: -0.266%"}, {"smiles": "Clc1ccc(CSc2nnc(NC3=NCCCCC3)s2)cc1", "activity change": "inactive: 8.38%"}, {"smiles": "CCCCNC(=O)Nc1ccccn1", "activity change": "inconclusive: -33.4% [inhibitor]"}, {"smiles": "CC(=O)Oc1cc2c(C(=O)NCc3ccncc3)c(C)oc2c2ccccc12", "activity change": "inconclusive: -32.9% [inhibitor]"}, {"smiles": "CCc1ccc(OCC(=O)NC2CCCCC2)c(Br)c1", "activity change": "inconclusive: -39.2% [inhibitor]"}, {"smiles": "COc1ccc(C2C(C#N)=C(N)N(c3sc4c(c3C#N)CCCC4)C3=C2C(=O)CC(C)(C)C3)cc1OC", "note": "(stereo not drawn)", "activity change": "inactive: -19.9%"}, {"smiles": "Cc1cc(NCCCn2ccnc2)n2ncc(-c3ccccc3)c2n1", "activity change": "inconclusive: -41.5% [inhibitor]"}, {"smiles": "Cc1c(OCC(N)=O)ccc2c(-c3ccccc3)cc(=O)oc12", "activity change": "inconclusive: -31.4% [inhibitor]"}, {"smiles": "Cc1ccc(S(=O)(=O)N2[C@@H](c3ccc(F)cc3)C(C(=O)O)=CC[C@H]2c2ccc3c(c2)OCO3)cc1", "activity change": "inconclusive: -55% [inhibitor]"}]}]}
